Test results reported in publication PMC8989322 (2022).

Tests used:
1504 = assay: SPR
1550 = assay: SPR

B1: reference 3D7 ctCSP peptide (domain or fragment)
chain: not shown
Kd 1504: 687 pM
Kd 1550: 431 pM
